The source of these data is PMC11116414, “Impact of secretin receptor homo-dimerization on natural ligand binding” (Nature Communications, 2024).

B1: human wild type secretin receptor (SecR WT) [human] / Cys5-[Tyr10]secretin(1-27) agonist probe [modified: 125I on Tyr10 (mono-iodinated)] [human] (parent)
chain 1: HSDGCFTSEYSRLREGARLQRLLQGLV
chain 2: HSTGALPRLCDVLQVLWEEQDQCLQELSREQTGDLGTEQPVPGCEGMWDNISCWPSSVPGRMVEVECPRFLRMLTSRNGSLFRNCTQDGWSETFPRPNLACGVNVNDSSNEKRHSYLLKLKVMYTVGYSSSLVMLLVALGILCAFRRLHCTRNYIHMHLFVSFILRALSNFIKDAVLFSSDDVTYCDAHRAGCKLVMVLFQYCIMANYSWLLVEGLYLHTLLAISFFSERKYLQGFVAFGWGSPAIFVALWAIARHFLEDVGCWDINANASIWWIIRGPVILSILINFILFINILRILMRKLRTQETRGNEVSHYKRLARSTLLLIPLFGIHYIVFAFSPEDAMEIQLFFELALGSFQGLVVAVLYCFLNGEVQLEVQKKWQQWHLREFPLHPVASFSNSTKASHLEQSQGTCRTSII

Variants of B1 are the subject of the first assay. Briefly: cysteine trapping, autoradiograph densitometry. The note with it: with Cys5-[Tyr10]secretin(1-27) agonist probe [modified: 125I on Tyr10 (mono-iodinated)] [human]; ECL3 series; intact COS-1 cells; non-reducing 10% SDS-PAGE; n = 5; read off a plot.
Take chain 2 HSTGALPRLCDVLQVLWEEQDQCLQELSREQTGDLGTEQPVPGCEGMWDNISCWPSSVPGRMVEVECPRFLRMLTSRNGSLFRNCTQDGWSETFPRPNLACGVNVNDSSNEKRHSYLLKLKVMYTVGYSSSLVMLLVALGILCAFRRLHCTRNYIHMHLFVSFILRALSNFIKDAVLFSSDDVTYCDAHRAGCKLVMVLFQYCIMANYSWLLVEGLYLHTLLAISFFSERKYLQGFVAFGWASPAAFVALWAIARHFLEDVGCWDINANASIWWIIRGPVILSILINFILFINILRILMRKLRTQETRGNEVSHYKRLARSTLLLIPLFGIHYIVFAFSPECAMEIQLFFELALGSFQGLVVAVLYCFLNGEVQLEVQKKWQQWHLREFPLHPVASFSNSTKASHLEQSQGTCRTSII [chain 2 G242A I246A D342C]: the screen value (% of maximum signal) is 53. Still for that read-out and setting: the value for chain 2 HSTGALPRLCDVLQVLWEEQDQCLQELSREQTGDLGTEQPVPGCEGMWDNISCWPSSVPGRMVEVECPRFLRMLTSRNGSLFRNCTQDGWSETFPRPNLACGVNVNDSSNEKRHSYLLKLKVMYTVGYSSSLVMLLVALGILCAFRRLHCTRNYIHMHLFVSFILRALSNFIKDAVLFSSDDVTYCDAHRAGCKLVMVLFQYCIMANYSWLLVEGLYLHTLLAISFFSERKYLQGFVAFGWASPAAFVALWAIARHFLEDVGCWDINANASIWWIIRGPVILSILINFILFINILRILMRKLRTQETRGNEVSHYKRLARSTLLLIPLFGIHYIVFAFSPEDCMEIQLFFELALGSFQGLVVAVLYCFLNGEVQLEVQKKWQQWHLREFPLHPVASFSNSTKASHLEQSQGTCRTSII [chain 2 G242A I246A A343C] was 78; that for chain 2 HSTGALPRLCDVLQVLWEEQDQCLQELSREQTGDLGTEQPVPGCEGMWDNISCWPSSVPGRMVEVECPRFLRMLTSRNGSLFRNCTQDGWSETFPRPNLACGVNVNDSSNEKRHSYLLKLKVMYTVGYSSSLVMLLVALGILCAFRRLHCTRNYIHMHLFVSFILRALSNFIKDAVLFSSDDVTYCDAHRAGCKLVMVLFQYCIMANYSWLLVEGLYLHTLLAISFFSERKYLQGFVAFGWASPAAFVALWAIARHFLEDVGCWDINANASIWWIIRGPVILSILINFILFINILRILMRKLRTQETRGNEVSHYKRLARSTLLLIPLFGIHYIVFAFSPEDACEIQLFFELALGSFQGLVVAVLYCFLNGEVQLEVQKKWQQWHLREFPLHPVASFSNSTKASHLEQSQGTCRTSII [chain 2 G242A I246A M344C] was 55.

As for chain 2 HSTGALPRLCDVLQVLWEEQDQCLQELSREQTGDLGTEQPVPGCEGMWDNISCWPSSVPGRMVEVECPRFLRMLTSRNGSLFRNCTQDGWSETFPRPNLACGVNVNDSSNEKRHSYLLKLKVMYTVGYSSSLVMLLVALGILCAFRRLHCTRNYIHMHLFVSFILRALSNFIKDAVLFSSDDVTYCDAHRAGCKLVMVLFQYCIMANYSWLLVEGLYLHTLLAISFFSERKYLQGFVAFGWASPAAFVALWAIARHFLEDVGCWDINANASIWWIIRGPVILSILINFILFINILRILMRKLRTQETRGNEVSHYKRLARSTLLLIPLFGIHYIVFAFSPEDAMEIQLFFECALGSFQGLVVAVLYCFLNGEVQLEVQKKWQQWHLREFPLHPVASFSNSTKASHLEQSQGTCRTSII [chain 2 G242A I246A L352C], the screen value (% of maximum signal) was 68.

The same assay, now with this note: with Cys5-[Tyr10]secretin(1-27) agonist probe [modified: 125I on Tyr10 (mono-iodinated)] [human]; ECL2 series; intact COS-1 cells; non-reducing 10% SDS-PAGE; n = 5; read off a plot.
In the case of chain 2 HSTGALPRLCDVLQVLWEEQDQCLQELSREQTGDLGTEQPVPGCEGMWDNISCWPSSVPGRMVEVECPRFLRMLTSRNGSLFRNCTQDGWSETFPRPNLACGVNVNDSSNEKRHSYLLKLKVMYTVGYSSSLVMLLVALGILCAFRRLHCTRNYIHMHLFVSFILRALSNFIKDAVLFSSDDVTYCDAHRAGCKLVMVLFQYCIMANYSWLLVEGLYLHTLLAISFFSERKYLQGFVAFGWASPAAFVALWAIARHFLEDVGCWDCNANASIWWIIRGPVILSILINFILFINILRILMRKLRTQETRGNEVSHYKRLARSTLLLIPLFGIHYIVFAFSPEDAMEIQLFFELALGSFQGLVVAVLYCFLNGEVQLEVQKKWQQWHLREFPLHPVASFSNSTKASHLEQSQGTCRTSII [chain 2 G242A I246A I266C], the screen value (% of maximum signal) was 70. chain 2 HSTGALPRLCDVLQVLWEEQDQCLQELSREQTGDLGTEQPVPGCEGMWDNISCWPSSVPGRMVEVECPRFLRMLTSRNGSLFRNCTQDGWSETFPRPNLACGVNVNDSSNEKRHSYLLKLKVMYTVGYSSSLVMLLVALGILCAFRRLHCTRNYIHMHLFVSFILRALSNFIKDAVLFSSDDVTYCDAHRAGCKLVMVLFQYCIMANYSWLLVEGLYLHTLLAISFFSERKYLQGFVAFGWASPAAFVALWAIARHFLEDVGCWDINANCSIWWIIRGPVILSILINFILFINILRILMRKLRTQETRGNEVSHYKRLARSTLLLIPLFGIHYIVFAFSPEDAMEIQLFFELALGSFQGLVVAVLYCFLNGEVQLEVQKKWQQWHLREFPLHPVASFSNSTKASHLEQSQGTCRTSII [chain 2 G242A I246A A270C]: the screen value (% of maximum signal) worked out at 90. For chain 2 HSTGALPRLCDVLQVLWEEQDQCLQELSREQTGDLGTEQPVPGCEGMWDNISCWPSSVPGRMVEVECPRFLRMLTSRNGSLFRNCTQDGWSETFPRPNLACGVNVNDSSNEKRHSYLLKLKVMYTVGYSSSLVMLLVALGILCAFRRLHCTRNYIHMHLFVSFILRALSNFIKDAVLFSSDDVTYCDAHRAGCKLVMVLFQYCIMANYSWLLVEGLYLHTLLAISFFSERKYLQGFVAFGWASPAAFVALWAIARHFLEDVGCWDINANASICWIIRGPVILSILINFILFINILRILMRKLRTQETRGNEVSHYKRLARSTLLLIPLFGIHYIVFAFSPEDAMEIQLFFELALGSFQGLVVAVLYCFLNGEVQLEVQKKWQQWHLREFPLHPVASFSNSTKASHLEQSQGTCRTSII [chain 2 G242A I246A W273C], the screen value (% of maximum signal) amounted to 80.
